Test results published in the BET-seq Pho4 binding data (Le et al. 2018).
This is one part of the list. The energies were worked out here from pooled read counts, against the library average; single values are noisy.

target: T1, Pho4 (S. cerevisiae) (UniProt P07270); assay: relative binding free energy (BET-seq); higher = weaker binding; settings: reference: library average
T1 sequence: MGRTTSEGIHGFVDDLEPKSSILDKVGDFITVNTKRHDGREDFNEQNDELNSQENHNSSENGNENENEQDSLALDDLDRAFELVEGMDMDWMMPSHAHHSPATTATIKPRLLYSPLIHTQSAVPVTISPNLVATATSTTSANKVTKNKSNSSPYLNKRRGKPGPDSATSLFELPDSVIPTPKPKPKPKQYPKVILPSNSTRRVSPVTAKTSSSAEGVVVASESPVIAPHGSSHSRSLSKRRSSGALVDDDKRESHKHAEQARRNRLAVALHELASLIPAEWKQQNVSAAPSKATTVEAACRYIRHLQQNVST

Sequence | relative binding free energy
TTATACACGTGATTGC | 0.2 kcal/mol
GGAAGCACGTGGATTT | -0.07 kcal/mol
GGGAACACGTGTATAT | 0.17 kcal/mol
GTGAGCACGTGTAATG | 0.11 kcal/mol
TCTTCCACGTGTGGTG | 0.22 kcal/mol
AAGGTCACGTGAGGTC | 0.22 kcal/mol
AGGGCCACGTGGGGGT | -0.24 kcal/mol
TGGATCACGTGGGGAG | -0.05 kcal/mol
TGTTACACGTGTTAGT | 0.11 kcal/mol
GGTGCCACGTGAGGGT | 0.16 kcal/mol
GAGATCACGTGTGAGT | 0.33 kcal/mol
TGTGTCACGTGGGTGA | 0.03 kcal/mol
ATATTCACGTGATGTA | 0.03 kcal/mol
TTATGCACGTGGGCCG | -0.23 kcal/mol
AGGAGCACGTGGCTTG | -0.14 kcal/mol
TTGGGCACGTGGTATG | -0.17 kcal/mol
TGTAGCACGTGTCAGT | -0.06 kcal/mol
AAGTGCACGTGGGATT | -0.16 kcal/mol
CGGTGCACGTGAGTGG | 0.12 kcal/mol
AAATCCACGTGAGTTG | 0.42 kcal/mol
TAGGACACGTGGTATT | -0.02 kcal/mol
GGTTTCACGTGTGTAG | 0.26 kcal/mol
TTTGGCACGTGTGGTT | -0.02 kcal/mol

Sequence | relative binding free energy
ATTGACACGTGTTGGA | -0.02 kcal/mol
GGTTACACGTGGGTGG | 0.04 kcal/mol
TTTGGCACGTGTCGCG | 0 kcal/mol
ATAGACACGTGAGTTT | 0.33 kcal/mol
GTTGGCACGTGTTGCA | -0.11 kcal/mol
CAAGTCACGTGGGAGA | 0.09 kcal/mol
ACGTGCACGTGGAGGG | -0.08 kcal/mol
TTATGCACGTGGTTGG | -0.05 kcal/mol
AAATTCACGTGATGGG | 0.43 kcal/mol
GTAGGCACGTGAAATT | 0.2 kcal/mol
GTAGACACGTGGGGCG | -0.06 kcal/mol
TGTTCCACGTGTGAAT | 0.08 kcal/mol
ATTGGCACGTGTGGTT | -0.09 kcal/mol
TGGGTCACGTGGCGCT | 0.05 kcal/mol
GAGGTCACGTGGACTT | 0.29 kcal/mol
TATGACACGTGCTATG | 0.01 kcal/mol
TTAGACACGTGTGTGA | -0.01 kcal/mol
TTTAGCACGTGGGTGG | -0.23 kcal/mol
GCATGCACGTGGGTAT | -0.2 kcal/mol
GTGGGCACGTGGACGC | 0.05 kcal/mol
TGATCCACGTGCTGGT | 0.12 kcal/mol
AGTTTCACGTGTTTTC | 0.21 kcal/mol
GGTAACACGTGATTTT | 0.33 kcal/mol

Sequence | relative binding free energy
TACTTCACGTGTGGAG | 0.3 kcal/mol
GAAGTCACGTGTTTCG | 0.19 kcal/mol
GGTATCACGTGGACGG | 0.25 kcal/mol
GGACTCACGTGGGGGG | 0.12 kcal/mol
GGCGACACGTGAGGGT | 0.22 kcal/mol
GATAGCACGTGTGTAT | 0.11 kcal/mol
CGGAACACGTGGAGTG | -0.13 kcal/mol
ATGGGCACGTGGGAGC | -0.25 kcal/mol
TGGATCACGTGTATGC | 0.15 kcal/mol
TAGTACACGTGTATTT | 0.14 kcal/mol
GAGTTCACGTGCGATG | 0.31 kcal/mol
GTTGGCACGTGAGAAT | 0.31 kcal/mol
TGAGCCACGTGTATGG | -0.11 kcal/mol
TTTGGCACGTGCCGAT | -0.08 kcal/mol
GTGGGCACGTGTTTAT | 0 kcal/mol
TAGGCCACGTGTCGGG | -0.05 kcal/mol
TATGTCACGTGCTATT | -0.12 kcal/mol
GGCGTCACGTGGATAA | 0.24 kcal/mol
TACAACACGTGTGGGG | 0.04 kcal/mol
TAAGTCACGTGTGAAT | 0.13 kcal/mol
TCAGGCACGTGGTGAG | -0.09 kcal/mol
GTAATCACGTGGGTTA | 0.02 kcal/mol
TTTACCACGTGTGAGT | 0.11 kcal/mol

Sequence | relative binding free energy
TTATACACGTGCGGAG | 0.04 kcal/mol
GGAGTCACGTGTGCGA | 0.08 kcal/mol
GTTAGCACGTGGATTG | 0.05 kcal/mol
TCGCGCACGTGTTGGA | -0.08 kcal/mol
ATAGCCACGTGGGTTG | -0.18 kcal/mol
TCAAGCACGTGTTGTT | -0.06 kcal/mol
AGGTGCACGTGTTAGT | -0.12 kcal/mol
TTTGTCACGTGTGCAT | 0.14 kcal/mol
TAAGACACGTGGTCTT | -0.07 kcal/mol
ATTATCACGTGCTGTG | 0.14 kcal/mol
AAGGACACGTGAGAGT | 0.24 kcal/mol
AGTCACACGTGGTGTT | -0.02 kcal/mol
AATTGCACGTGTTCTA | 0.03 kcal/mol
GTCGTCACGTGGTGGA | 0.04 kcal/mol
TAAGGCACGTGGCTTG | -0.08 kcal/mol
ATTGTCACGTGAGAAT | 0.27 kcal/mol
GGCAGCACGTGGGAAG | -0.08 kcal/mol
GGGGACACGTGGCAAG | -0.03 kcal/mol
GAAGGCACGTGATGGA | 0.01 kcal/mol
GGTTTCACGTGAGTGG | 0.32 kcal/mol
GTTCTCACGTGTTGGT | 0.27 kcal/mol
TAGTACACGTGAAGAG | 0.27 kcal/mol
TTAGTCACGTGATTCG | 0.33 kcal/mol

Sequence | relative binding free energy
TGGGTCACGTGTTTAG | 0.12 kcal/mol
GTTAGCACGTGGTATG | -0.08 kcal/mol
GTATTCACGTGACGTT | 0.24 kcal/mol
GGTAACACGTGTTTGG | 0.08 kcal/mol
CGAAACACGTGGGGGT | -0.07 kcal/mol
ATAGTCACGTGCTTGG | 0 kcal/mol
TGTGTCACGTGTTGGA | 0.12 kcal/mol
ATTGACACGTGTTATG | 0.08 kcal/mol
ACGATCACGTGGTGGG | -0.05 kcal/mol
AGTGACACGTGACGGT | 0.13 kcal/mol
CTAGGCACGTGTGGAT | -0.09 kcal/mol
ATTCTCACGTGTTCTG | 0.35 kcal/mol
ATGGACACGTGGTATT | -0.07 kcal/mol
GTGGCCACGTGCTTTG | -0.05 kcal/mol
TGTATCACGTGGTCTA | 0.01 kcal/mol
AGAGTCACGTGGAGAT | -0.01 kcal/mol
ATTCGCACGTGCTTGG | -0.05 kcal/mol
CTGTACACGTGGTGTG | -0.05 kcal/mol
ATTGTCACGTGGCGTG | 0.09 kcal/mol
CATTGCACGTGTTGAT | 0.07 kcal/mol
TATAGCACGTGGGAGA | -0.16 kcal/mol
CAGGGCACGTGCCGGG | -0.09 kcal/mol
TTAAGCACGTGCGGGG | -0.21 kcal/mol
